This experiment relates to BDF1 mice, colon carcinoma 38 sc, T/C %. Description: NCI In Vivo Anticancer Drug Screen. Data for tumor model Colon Carcinoma 38 (subcutaneous) in B6D2F1 (BDF1) mice. The following applies: endpoint: median tumor weight (est.), schedule: Q07DX002 (ip), higher = larger tumour. On the procedure: The antitumor activity of compounds was measured in mice bearing transplantable tumors. Survival or tumor size were measured and the results are expressed as the measurement made in the treated group (T) divided by the measurement made in the vehicle treated control group (C). The tumor model used in this assay is Colon Carcinoma 38 (subcutaneous) in B6D2F1 (BDF1) mice

The structures appear in SMILES notation. Inconclusive results are not listed. Not every entry of the source has a single result; some have several. The list is limited to them. The source may hold further records. The values listed for one entry differ for a reason that is not stated; dose, time, organism, isomer or construct need not be as stated for each record.

In the case of `COc1cccc2c1C(=O)c1c(O)c3c(c(O)c1C2=O)C[C@@](O)(C(=O)CO)C[C@@H]3OC1CC(N)C(O)C(C)O1` (stereo not given in full), the T/C (dose: 0.75 mg/kg/injection, vehicle: water) was 47 % of control and 110 % of control; the T/C (dose: 1.5 mg/kg/injection, vehicle: water) is 84 % of control and 122 % of control; the T/C (dose: 3.0 mg/kg/injection, vehicle: water) is 52 % of control, 74 % of control, 96 % of control; the T/C (dose: 6.0 mg/kg/injection, vehicle: water) was 31 % of control, 74 % of control, 83 % of control.
For the compound `COC1C(O)CC(OC2CC(Oc3cc4cc5c(c(O)c4c(O)c3C)C(=O)[C@@H](OC3CC(OC4CC(OC6CC(C)(O)C(OC(C)=O)C(C)O6)C(O)C(C)O4)C(O)C(C)O3)[C@H]([C@H](OC)C(=O)[C@@H](O)[C@@H](C)O)C5)OC(C)C2OC(C)=O)OC1C` (stereo not given in full), the T/C (dose: 0.32 mg/kg/injection, vehicle: Klucel (hydroxypropylcellulose) (HPC)) was 87 % of control and 117 % of control.

(Values after PubChem BioAssay AID212 (DTP/NCI, 2004).)
